Results: article PMC5013012
Results are given in words; binding and its absence hold for the method and conditions named. Binding seen in cells or lysates may run through a third protein. Some entries that bind do so weakly or less than the wild type. Each block holds one substance with its values, some of them ahead of it.

The chains behind the UniProt entries cited, without tags or fusion partners. Where a name states a change or a piece, a line headed by the entry shows the natural chain unless it says otherwise. Residues count along the entry.
UniProt P31750: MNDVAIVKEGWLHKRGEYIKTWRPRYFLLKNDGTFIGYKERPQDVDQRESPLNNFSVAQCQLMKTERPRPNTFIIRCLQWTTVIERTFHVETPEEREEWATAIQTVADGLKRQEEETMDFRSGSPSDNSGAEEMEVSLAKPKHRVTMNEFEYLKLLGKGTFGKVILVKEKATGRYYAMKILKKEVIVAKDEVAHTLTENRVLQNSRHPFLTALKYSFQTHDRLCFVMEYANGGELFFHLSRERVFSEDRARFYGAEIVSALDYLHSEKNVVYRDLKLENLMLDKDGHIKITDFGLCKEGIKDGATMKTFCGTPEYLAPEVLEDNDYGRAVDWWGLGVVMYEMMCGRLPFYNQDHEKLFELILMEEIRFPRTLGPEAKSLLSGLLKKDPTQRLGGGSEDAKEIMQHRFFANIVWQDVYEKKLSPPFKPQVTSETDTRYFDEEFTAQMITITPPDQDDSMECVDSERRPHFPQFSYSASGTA
UniProt P31749: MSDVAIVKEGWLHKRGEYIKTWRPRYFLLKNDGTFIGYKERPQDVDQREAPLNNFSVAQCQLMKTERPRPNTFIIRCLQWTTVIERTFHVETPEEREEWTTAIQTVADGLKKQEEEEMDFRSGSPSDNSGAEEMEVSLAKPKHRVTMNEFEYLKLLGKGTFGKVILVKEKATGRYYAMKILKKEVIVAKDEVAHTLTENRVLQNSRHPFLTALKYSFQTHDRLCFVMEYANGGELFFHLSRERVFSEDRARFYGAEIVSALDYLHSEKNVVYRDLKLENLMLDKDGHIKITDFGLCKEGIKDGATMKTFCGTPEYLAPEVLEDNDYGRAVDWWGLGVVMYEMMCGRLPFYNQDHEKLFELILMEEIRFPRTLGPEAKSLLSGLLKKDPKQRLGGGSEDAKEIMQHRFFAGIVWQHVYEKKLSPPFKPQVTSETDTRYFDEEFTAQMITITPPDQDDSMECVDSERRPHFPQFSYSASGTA
Akt1 fragment containing amino acids 4-111: residues 4-111 of P31749
Akt1 fragment containing amino acids 150-408 (myc-Akt1-PK): residues 150-408 of P31749
Akt1 fragment containing amino acids 409-479 (myc-Akt1-AGC): residues 409-479 of P31749
UniProt P54646: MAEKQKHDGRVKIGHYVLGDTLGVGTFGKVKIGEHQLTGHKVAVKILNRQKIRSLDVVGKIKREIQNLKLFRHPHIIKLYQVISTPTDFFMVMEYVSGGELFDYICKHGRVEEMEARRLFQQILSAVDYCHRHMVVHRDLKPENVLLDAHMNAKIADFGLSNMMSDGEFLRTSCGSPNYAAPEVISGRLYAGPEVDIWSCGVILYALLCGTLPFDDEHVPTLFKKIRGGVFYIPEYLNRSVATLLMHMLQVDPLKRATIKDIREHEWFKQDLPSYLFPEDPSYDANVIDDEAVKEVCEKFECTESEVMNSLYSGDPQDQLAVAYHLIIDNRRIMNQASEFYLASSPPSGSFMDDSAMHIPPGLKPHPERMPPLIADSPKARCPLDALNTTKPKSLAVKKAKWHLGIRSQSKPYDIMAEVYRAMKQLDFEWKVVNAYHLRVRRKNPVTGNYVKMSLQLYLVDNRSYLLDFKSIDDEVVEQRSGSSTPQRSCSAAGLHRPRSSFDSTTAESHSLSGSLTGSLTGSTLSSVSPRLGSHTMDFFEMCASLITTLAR
UniProt O54950: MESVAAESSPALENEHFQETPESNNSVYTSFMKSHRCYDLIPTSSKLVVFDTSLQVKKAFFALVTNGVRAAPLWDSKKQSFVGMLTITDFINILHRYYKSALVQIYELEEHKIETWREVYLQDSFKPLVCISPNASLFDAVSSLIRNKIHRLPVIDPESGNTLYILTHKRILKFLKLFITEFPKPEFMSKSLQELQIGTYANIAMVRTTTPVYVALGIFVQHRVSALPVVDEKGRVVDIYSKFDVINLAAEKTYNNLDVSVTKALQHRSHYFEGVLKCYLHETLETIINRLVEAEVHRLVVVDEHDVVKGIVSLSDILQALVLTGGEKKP
UniProt P54619: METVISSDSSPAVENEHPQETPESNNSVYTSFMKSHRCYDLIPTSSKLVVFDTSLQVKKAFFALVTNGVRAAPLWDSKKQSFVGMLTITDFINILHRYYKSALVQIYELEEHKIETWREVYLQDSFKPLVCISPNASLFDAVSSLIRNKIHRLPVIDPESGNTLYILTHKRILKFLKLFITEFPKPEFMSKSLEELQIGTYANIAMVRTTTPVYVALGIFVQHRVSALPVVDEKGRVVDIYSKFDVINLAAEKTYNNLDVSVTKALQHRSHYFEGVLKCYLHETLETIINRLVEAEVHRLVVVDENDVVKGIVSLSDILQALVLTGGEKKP

What was measured:
[1] = target: phosphorylated Akt1 (p-Akt1, Ser473), endogenous in mouse cardiomyocytes (mouse (endogenous in adult mouse cardiomyocytes)) (UniProt P31750); assay: co-IP; nuclear extracts and cytosol preparations of cultured mouse cardiomyocytes (control, PE, 11,12-EET pretreatment); immunoprecipitation with a p-Akt1-specific antibody or control IgG, blots for AMPK subunits, p-AMPKα2 and AMPKα2
GST-Akt1 = GST-Akt1 (UniProt P31749); assay: pull-down; HEK293T cells transfected with GST-Akt1, pretreated with 11,12-EET, PE for 24 h; cytosolic and nuclear proteins purified with glutathione Sepharose beads, blots for Akt1 and AMPKγ1
[2] = target: Akt1 fragment containing amino acids 150-408 (myc-Akt1-PK) (UniProt P31749); assay: co-IP; myc-tagged Akt1 (full length or fragments) with Flag-tagged AMPKα2, AMPKβ2 or AMPKγ1 in HEK293T cells; called 'in vitro binding assay' in the text
[3] = target: Full-length Akt1 tagged with myc (myc-Akt1) (UniProt P31749); assay: as above
[4] = target: Akt1 fragment containing amino acids 409-479 (myc-Akt1-AGC) (UniProt P31749); assay: as above
[5] = target: Akt1 fragment containing amino acids 4-111 (UniProt P31749); assay: as above
myc-conjugated AMPKα2-WT = myc-conjugated AMPKα2-WT (UniProt P54646); assay: co-IP; HEK293T cells transfected with myc-AMPKα2-WT or myc-AMPKα2-T172A, with 11,12-EET and PE; nuclear lysates immunoprecipitated with a myc-specific antibody or control IgG, blots for p-Akt1, p-AMPKα2 and AMPKα2
[6] = target: myc-conjugated AMPKα2-T172A (UniProt P54646); assay: as above

binding [1]: binds
Substance: AMPKγ1 subunit, endogenous in mouse cardiomyocytes (from UniProt O54950 1-330)

binding (GST-Akt1): binds
Substance: AMPKγ1, endogenous in HEK293T cells (from UniProt P54619 1-331)

binding [2]: binds
binding [3]: binds
binding [4]: no binding
binding [5]: no binding
Substance: Flag-tagged AMPKγ1 (from UniProt P54619 1-331)

binding (myc-conjugated AMPKα2-WT): no binding
binding [6]: no binding
Substance: phosphorylated Akt1 (p-Akt1), endogenous in HEK293T cells (from UniProt P31749 1-480)
